Measurements reported in paper PMC5986769.
Results are given in words; binding and its absence hold for the method and conditions named. In cells and extracts the contact can be indirect. Some entries that bind do so weakly or less than the wild type. Values belong to the substance of their own block, whether it stands above or below them.

The chains behind the UniProt entries cited, without tags or fusion partners. Where a name states a change or a piece, a line headed by the entry shows the natural chain unless it says otherwise. Residues count along the entry.
UniProt P35444, residues 20-755: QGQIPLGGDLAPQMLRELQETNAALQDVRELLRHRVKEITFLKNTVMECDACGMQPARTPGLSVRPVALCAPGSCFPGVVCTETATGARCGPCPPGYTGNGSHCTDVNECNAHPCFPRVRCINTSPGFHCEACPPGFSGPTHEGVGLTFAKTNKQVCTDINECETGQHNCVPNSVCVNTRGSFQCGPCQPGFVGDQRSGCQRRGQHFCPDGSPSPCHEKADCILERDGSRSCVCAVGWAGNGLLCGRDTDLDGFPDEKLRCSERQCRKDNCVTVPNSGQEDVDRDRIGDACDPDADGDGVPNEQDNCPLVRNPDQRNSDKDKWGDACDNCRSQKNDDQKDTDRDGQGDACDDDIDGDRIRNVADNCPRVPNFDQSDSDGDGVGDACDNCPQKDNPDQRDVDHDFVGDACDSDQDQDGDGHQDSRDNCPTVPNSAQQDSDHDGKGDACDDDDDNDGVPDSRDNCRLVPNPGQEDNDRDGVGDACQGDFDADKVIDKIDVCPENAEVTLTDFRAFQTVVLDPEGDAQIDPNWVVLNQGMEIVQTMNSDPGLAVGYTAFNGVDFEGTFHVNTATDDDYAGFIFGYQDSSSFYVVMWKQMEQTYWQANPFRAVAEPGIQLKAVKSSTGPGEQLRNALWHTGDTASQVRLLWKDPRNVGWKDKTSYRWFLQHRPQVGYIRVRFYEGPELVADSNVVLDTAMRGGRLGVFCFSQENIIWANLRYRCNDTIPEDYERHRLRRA
UniProt Q5XIH7: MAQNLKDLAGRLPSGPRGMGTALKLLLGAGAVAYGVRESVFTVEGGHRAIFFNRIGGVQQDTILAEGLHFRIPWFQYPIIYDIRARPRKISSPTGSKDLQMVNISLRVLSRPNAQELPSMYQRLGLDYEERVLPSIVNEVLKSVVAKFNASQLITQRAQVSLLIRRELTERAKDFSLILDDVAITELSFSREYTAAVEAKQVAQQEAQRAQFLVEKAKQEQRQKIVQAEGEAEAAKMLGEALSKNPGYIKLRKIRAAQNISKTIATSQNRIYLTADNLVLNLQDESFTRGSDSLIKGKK
UniProt Q9R0G6: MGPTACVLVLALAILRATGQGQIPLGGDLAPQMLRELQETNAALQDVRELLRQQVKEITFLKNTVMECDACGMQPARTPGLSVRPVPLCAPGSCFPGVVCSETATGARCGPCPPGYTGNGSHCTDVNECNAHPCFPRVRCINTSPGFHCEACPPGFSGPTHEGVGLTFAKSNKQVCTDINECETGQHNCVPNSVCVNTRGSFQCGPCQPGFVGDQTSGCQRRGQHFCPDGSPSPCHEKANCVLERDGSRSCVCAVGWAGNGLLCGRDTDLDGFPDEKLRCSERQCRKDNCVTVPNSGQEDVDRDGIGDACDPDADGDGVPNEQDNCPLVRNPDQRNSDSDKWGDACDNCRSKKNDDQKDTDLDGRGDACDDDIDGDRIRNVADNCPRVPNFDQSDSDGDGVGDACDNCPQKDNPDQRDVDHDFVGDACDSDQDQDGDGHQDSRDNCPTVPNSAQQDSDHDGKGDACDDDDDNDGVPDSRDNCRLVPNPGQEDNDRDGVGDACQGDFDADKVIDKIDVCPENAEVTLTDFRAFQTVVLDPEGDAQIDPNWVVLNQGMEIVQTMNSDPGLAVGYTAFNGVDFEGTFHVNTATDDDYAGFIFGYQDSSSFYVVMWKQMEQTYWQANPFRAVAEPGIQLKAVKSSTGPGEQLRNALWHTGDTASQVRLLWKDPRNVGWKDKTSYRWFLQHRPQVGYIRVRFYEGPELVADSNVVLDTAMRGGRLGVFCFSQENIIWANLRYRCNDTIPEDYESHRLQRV
Flag-COMP, full-length mouse COMP with N-terminal FLAG, in HEK293A cells: residues 20-755 of Q9R0G6
flag-COMP N-terminus (aa 1-83): residues 20-83 of Q9R0G6
flag-COMP epidermal growth factor (EGF) repeat domain (aa 84-261): residues 84-261 of Q9R0G6
flag-COMP type III repeat domain (aa 266-520): residues 266-520 of Q9R0G6
flag-COMP C-terminus (aa 521-755): residues 521-755 of Q9R0G6
UniProt P10719, residues 47-529: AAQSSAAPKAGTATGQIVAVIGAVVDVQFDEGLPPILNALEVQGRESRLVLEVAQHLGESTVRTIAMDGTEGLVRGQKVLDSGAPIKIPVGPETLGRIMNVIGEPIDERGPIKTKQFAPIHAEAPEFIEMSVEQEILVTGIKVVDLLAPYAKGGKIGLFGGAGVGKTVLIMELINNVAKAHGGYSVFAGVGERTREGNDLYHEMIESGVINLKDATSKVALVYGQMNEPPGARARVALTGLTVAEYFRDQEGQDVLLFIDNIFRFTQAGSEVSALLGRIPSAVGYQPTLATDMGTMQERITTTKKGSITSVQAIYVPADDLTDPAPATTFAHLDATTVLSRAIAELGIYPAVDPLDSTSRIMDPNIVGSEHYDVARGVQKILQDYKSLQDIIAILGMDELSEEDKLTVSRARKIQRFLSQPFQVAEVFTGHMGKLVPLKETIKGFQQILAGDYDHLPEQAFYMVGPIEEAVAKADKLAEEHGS
UniProt O35129, residues 201-299: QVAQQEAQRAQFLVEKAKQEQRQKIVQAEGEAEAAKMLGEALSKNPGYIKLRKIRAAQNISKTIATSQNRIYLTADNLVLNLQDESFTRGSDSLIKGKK

Legend:
[1] = target: Cartilage oligomeric matrix protein (COMP), endogenous in VSMCs (rat (endogenous in rat VSMCs)) (UniProt P35444); assay: co-IP; endogenous proteins of VSMCs (mitochondrial fraction for prohibitin 2); anti-COMP or anti-prohibitin 2 antibody against control IgG; western blot
[2] = target: T1, Prohibitin 1, endogenous in VSMCs (UniProt P67779); assay: as above
T1 sequence: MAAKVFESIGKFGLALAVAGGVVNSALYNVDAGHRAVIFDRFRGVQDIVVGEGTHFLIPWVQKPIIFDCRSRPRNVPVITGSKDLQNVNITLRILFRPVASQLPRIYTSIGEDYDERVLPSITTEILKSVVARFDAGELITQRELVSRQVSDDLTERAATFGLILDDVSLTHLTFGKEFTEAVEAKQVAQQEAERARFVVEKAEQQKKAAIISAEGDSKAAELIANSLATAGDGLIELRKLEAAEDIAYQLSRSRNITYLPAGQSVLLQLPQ

[3] = target: Prohibitin 2, endogenous in VSMCs (rat (endogenous in rat VSMCs)) (UniProt Q5XIH7); assay: as above
[4] = target: flag-COMP C-terminus (aa 521-755) (mouse) (UniProt Q9R0G6); assay: co-IP; COS-7 cells co-transfected with pcDNA3.1-prohibitin 2 and flag-COMP full length or single domains; precipitated with flag antibody against IgG; blot with anti-prohibitin 2 antibody
[5] = target: flag-COMP N-terminus (aa 1-83) (mouse) (UniProt Q9R0G6); assay: as above
[6] = target: flag-COMP epidermal growth factor (EGF) repeat domain (aa 84-261) (mouse) (UniProt Q9R0G6); assay: as above
[7] = target: flag-COMP type III repeat domain (aa 266-520) (mouse) (UniProt Q9R0G6); assay: as above
[8] = target: flag-COMP, full-length mouse COMP with N-terminal FLAG, in COS-7 cells (mouse) (UniProt Q9R0G6); assay: as above
[9] = target: Flag-COMP, full-length mouse COMP with N-terminal FLAG, in HEK293A cells (mouse) (UniProt Q9R0G6); assay: co-IP; HEK293A cells co-transfected with full-length Flag-COMP and 6 × His-prohibitin 2 fragments; precipitated with Flag antibody against control IgG; blot with His antibody

Substance: Prohibitin 2, endogenous in VSMCs (from UniProt Q5XIH7 1-299)
binding [1]: binds

Substance: Cartilage oligomeric matrix protein (COMP), endogenous in VSMCs (from UniProt P35444 20-755)
binding [2]: binds
binding [3]: binds

Substance: ATP synthase subunit β, endogenous in VSMCs (from UniProt P10719 47-529)
binding [1]: no binding

Continued, values first:

binding [4]: no binding
binding [5]: no binding
binding [6]: binds
binding [7]: no binding
binding [8]: binds
Substance: Prohibitin 2, full-length rat, from pcDNA3.1-prohibitin 2 in COS-7 cells (from UniProt Q5XIH7 1-299)

binding [9]: binds
Substance: 6 × His-prohibitin 2 C-terminus (aa 201-299) (from UniProt O35129 201-299) (domain or fragment)
